# Test results from PubChem BioAssay AID1345082 (National Center for Advancing Translational Sciences (NCATS), 2018).
# Where “and” joins values, the source holds several entries; their conditions need not be identical. Identical values can stand only once. Among all 94,000 compounds or so, about 4,000 (4.3%) were called active. The inconclusive results got no clear call from the source; some entries with a clear call stand among them for comparison. Calls follow the shape of the dose curve; as a rule, active = well fitted inhibition curve with a large enough effect; inconclusive = small, poorly fitted or top-dose-only effect; inactive = no such curve, though single readings can be large or run the other way. Where the call is inconclusive, the potency comes from a doubtful curve fit.
# Assay: Cytotoxic Profiling in NIH 3T3 Cell Line of Diverse Libraries Using Quantitative High-Throughput Screening; also: nearly all actives have a fitted effect of over 55% in size
# Settings: NIH 3T3 viability, CellTiter-Glo ATP luminescence, 48-72 h; series mostly up to 96.7 µM
# In short: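 Mouse fibroblast NIH 3T3 cells, 400 per well, received compound via pintool and were incubated for 48 or 72 hr prior to CellTiter-Glo ATP luminescence measurement.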
# Potency is read from the fitted curve at half-maximal effect; tags tell the direction and shape of the fitted curve.
row,SMILES,Potency
1,COc1ccc(OCc2nc3c(n2Cc2ccccc2)C(=O)N(Cc2ccccc2C#N)CCN3)cc1OC,"inconclusive: 44.7 µM [inhibitor, partial curve, poor fit]"
2,Cc1nnc2ccc(N3CCCC(NC(=O)NC(C)C)C3)nn12 (stereo not drawn),inactive
3,c1ccc(Nc2cc3c(cn2)CN(Cc2ccccn2)CCN3)cc1,"inconclusive: 10 µM [inhibitor, full curve, poor fit]"
4,COc1ccc(Cl)cc1S(=O)(=O)N1CCCC(CO)(Cc2cccc(Cl)c2)C1 (stereo not drawn),"inconclusive: 44.7 µM [inhibitor, partial curve, poor fit]"
5,CC(=O)Nc1cccc(C(=O)NCCn2ccn3nc(-c4ccc(C)cc4C)cc3c2=O)c1,"inconclusive: 44.7 µM [inhibitor, partial curve, poor fit]"
6,COc1ccc(CN2C[C@@H](F)[C@@H](OCc3nc4ccccc4o3)C2)cc1,"inconclusive: 70.8 µM [inhibitor, partial curve]"
7,COc1ccc(-n2nc(C3CCN(Cc4ccccc4)CC3)[nH]c2=O)cc1,"inactive and inconclusive: 28.2 µM [inhibitor, full curve]"
8,O=C(Cc1c[nH]c2ncc(-c3cccnc3)cc12)NCc1cccc(F)c1,active: 25.1 µM
9,CCC(=O)N1CCc2c(C(=O)Nc3ccc(OC)c(OC)c3)cccc21,inactive
10,O=C(NCc1ccccn1)c1cn2cc(-c3ccccc3)sc2n1,"inconclusive: 50.1 µM [inhibitor, partial curve, poor fit]"
11,Cc1nc(CN2Cc3nc(Nc4ccc(C(F)(F)F)cc4)ccc3OCC2=O)cs1,"inconclusive: 44.7 µM [inhibitor, partial curve, poor fit]"
12,COc1ccc(CCC(=O)N2CC[C@@H](n3c(=O)n(C)c4cccnc43)C2)cc1,inactive
13,Cc1nn2c(c1-c1ccccc1Oc1ccccc1)N(C(=O)c1ccc(F)cc1)CCC2,"inconclusive: 50.1 µM [inhibitor, partial curve, poor fit]"
14,COc1cc(NC(=O)c2cc3n(n2)CC(c2ccc(Cl)cc2)OC3)cc(OC)c1OC (stereo not drawn),"inconclusive: 50.1 µM [inhibitor, partial curve, poor fit]"
15,O=C1CC(c2ccccc2)N(Cc2ccncc2)CCCN(S(=O)(=O)c2cccc(F)c2)CCN1 (stereo not drawn),"inconclusive: 44.7 µM [inhibitor, partial curve, poor fit]"
16,Cc1ccc(-c2nc(C(=O)N3CCN(c4ccccc4C)CC3)no2)cc1,"inconclusive: 70.8 µM [inhibitor, single point]"
17,CN(C)C(=O)CCN1CCOC(CC(c2ccccc2)c2ccccc2)C1 (stereo not drawn),inactive
18,O=C(Cn1ccn2nc(-c3ccccc3)c(CO)c2c1=O)Nc1ccccc1C(F)(F)F,inactive
19,O=C(C1CCCC1)N1CCN(Cc2ccccc2-c2ccccc2F)CC1,"inconclusive: 44.7 µM [inhibitor, partial curve, poor fit]"
20,COc1ccc(Cl)cc1-c1ccc2c(c1)C(=O)N1CCN(C(=O)c3cccs3)C[C@@H]1C(=O)N2,inactive
21,CCNC(=O)OC1CCN(C(=O)CC(C)C)CC(=O)N(C)c2ccccc21 (stereo not drawn),"inconclusive: 50.1 µM [inhibitor, partial curve, poor fit]"
22,Cc1cccc(CN2CCCn3nc(C)c(-c4ccccc4-c4ccccc4)c32)n1,active: 12.6 µM
23,CC(=O)Nc1ccccc1-c1c(C)nn2c1N(CCCc1ccccc1)CCC2,active: 25.1 µM

row,SMILES,Potency
1,O=C(c1ccc(Cl)cc1)N1CCC2(Cc3ccccc3CNC2=O)C1 (stereo not drawn),"inconclusive: 44.7 µM [inhibitor, partial curve, poor fit]"
2,CSc1ccc(-c2cccc(C(=O)NCC(=O)NCCc3ccc(Cl)cc3)c2)cc1,"inconclusive: 50.1 µM [inhibitor, partial curve, poor fit]"
3,CC1=C[C@@H](CNC(=O)C(C)C)[C@H](C(C)C)C[C@H]1Cc1nc2ncccc2[nH]1,"inconclusive: 100 µM [inhibitor, single point]"
4,COCCNC(=O)C[C@@H]1C[C@@H](C(C)C)[C@H](CNC(=O)C2CC2)C=C1C,"inconclusive: 79.4 µM [inhibitor, partial curve]"
5,NC(=O)[C@@H](Cc1ccccc1)NC(=O)[C@@]1(O)C[C@@H](O)[C@H](O)[C@@H](NC(=O)c2cccnc2)C1,inactive
6,COc1ccc2[nH]c3c(c2c1)CCN(C)C31CCN(C(=O)c2ccnn2C)CC1,inactive
7,C[S+](=O)([O-])c1ccc(-c2nccc3c(=O)cc(-c4ccncc4)oc23)cc1,active: 31.6 µM
8,c1ccc(O[C@H]2COCCN(Cc3cccc4c3OCO4)C2)cc1,inactive
9,Cc1ccc(-c2cc(N3CCCN(C(=O)c4cccc(N(C)C)c4)CC3)n[nH]2)cc1C,active: 39.8 µM
10,CC(C)c1ccc(CN2CCC3(CC2)COCCN3C(=O)OCc2ccccc2)cc1,active: 35.5 µM
11,COc1ccccc1N1CCN(C2CCCN(Cc3cccc(C)n3)C2)CC1 (stereo not drawn),inactive
12,CC(C)c1ccc(CN2CCCC3(CCN(C(=O)c4ccsc4)C3)C2)cc1 (stereo not drawn),"inconclusive: 50.1 µM [inhibitor, partial curve, poor fit]"
13,Cc1c(-c2ccccc2)[nH]c2c(CNC(=O)C3=NN(C)C(=O)CC3)cc(Cl)cc12,active: 44.7 µM
14,O=C(O)Cc1cc(C2CCN(Cc3cn(-c4ccccc4)nn3)CC2)n[nH]1,inactive
15,O=c1[nH]ccn1C1CCN(Cc2cccc3ccccc23)CC1,inactive
16,C=CC[C@H]1CC(C)=C[C@H](CC=C)N1Cc1ccc(CN(C)S(C)(=O)=O)o1,"inconclusive: 79.4 µM [inhibitor, partial curve, poor fit]"
17,O=C(NCCc1ccncc1)C1c2ccccc2C(=O)N(c2ccccc2)C12CCCCC2 (stereo not drawn),"inconclusive: 79.4 µM [inhibitor, single point]"
18,CCN(C(=O)CN1C(=O)NC2(CCS(=O)(=O)CC2)C1=O)c1cccc(C)c1,inactive
19,COCC(=O)N[C@H]1C[C@@H](Cc2cc(CN(C)Cc3ccccc3)on2)C1(C)C,"inconclusive: 89.1 µM [inhibitor, partial curve]"
20,COC(=O)CNC(=O)c1ccc(-c2ccc(OC)nn2)cc1Cl,inactive
21,Cc1ccc(CN2C(=O)[C@@H]3C[C@@H](O)CN3C3(CN(C4CCC4)C3)C2=O)o1,inactive
22,O=C(C[C@H]1NC(=O)c2ccccc2NC1=O)NCCc1nc2ccccc2[nH]1,inactive
23,O=C(C1CCCN1C(=O)NC1CCCC1)N1CCC(c2ccccc2)CC1 (stereo not drawn),"inconclusive: 50.1 µM [inhibitor, partial curve, poor fit]"

row,SMILES,Potency
1,COc1ccccc1CNC[C@H]1O[C@H](Cc2cc(-c3ccccc3)on2)CC[C@@H]1O,active: 89.1 µM
2,CN(C)C[C@@H]1CN(Cc2ccccn2)C[C@H]1NC(=O)c1ccc(Cl)cc1,inactive
3,CN(C)c1ccc(CN2CCC3(C2)C(=O)Nc2ccccc23)cc1 (stereo not drawn),"inconclusive: 100 µM [inhibitor, single point]"
4,O=C(CNC(=O)c1ccc(-c2cnc3ccccc3c2)cc1)NCC1CCCCC1,"inconclusive: 39.8 µM [inhibitor, partial curve]"
5,COc1cc2c(cc1NS(C)(=O)=O)C(c1cccc3nsnc13)CC(=O)N2 (stereo not drawn),"inconclusive: 50.1 µM [inhibitor, partial curve, poor fit]"
6,CCn1c2c(c(=O)n1Cc1ccccc1)CCN(C(=O)C1CCCO1)C2 (stereo not drawn),"inconclusive: 89.1 µM [inhibitor, partial curve, poor fit]"
7,COc1ccc(Cl)cc1NC(=O)CCC1CCCN(C(=O)c2ccnn2C)C1 (stereo not drawn),"inconclusive: 56.2 µM [inhibitor, partial curve, poor fit]"
8,CC(C)C1CN(C(=O)OC(C)(C)C)CCN1 (stereo not drawn),inactive
9,CCCc1noc(-c2cn(C3CCN(C(=O)Cc4ccc(F)cc4)CC3)nn2)n1,"inconclusive: 44.7 µM [inhibitor, partial curve, poor fit]"
10,Cc1noc(C)c1-c1cc2c(c(-c3ccccc3)c1)C(=O)N(C)C2,"inconclusive: 10 µM [inhibitor, partial curve, poor fit]"
11,CC(C)NC(=O)c1ccc2nnc(-c3cncc(Cl)c3)n2c1,inactive
12,COc1ccc(OC)c(-c2nc3c(C)cccc3cc2CN2CCCC(O)C2)c1 (stereo not drawn),inactive
13,O=C(NC1CCCCC1)c1ccc2nnc(-c3ccc(OC(F)(F)F)cc3)n2c1,"inconclusive: 44.7 µM [inhibitor, partial curve, poor fit]"
14,CCOc1ccccc1CN1CCOCCNC(=O)[C@H]2CCCC[C@H]21,inactive
15,Cc1ccc(C(=O)NC2CCN(c3cc(-c4cccs4)[nH]n3)C2)c(C)c1 (stereo not drawn),inactive
16,Cc1ccc(C(=O)N[C@H]2CO[C@H]3[C@@H]2OC[C@@H]3n2cc(-c3ccccc3)nn2)cc1,"inconclusive: 100 µM [inhibitor, partial curve]"
17,CC(C)NC(=O)C1CCc2sc(C(=O)N3CCCCCC3)cc2C1 (stereo not drawn),inactive
18,O=C(CCC[C@@H]1[C@H]2CCCN3CCC[C@@H](CN1C(=O)Cc1ccc(F)cc1)[C@@H]23)N1CCOCC1,inactive
19,Cc1nnc(-c2cc(-c3cccc(CO)c3)ccn2)n1Cc1cccnc1,"inconclusive: 112 µM [inhibitor, single point]"
20,Cn1nc(C2CCCC2)cc1NC(=O)C1CC1,inactive
21,COC(=O)NC1CCCN(Cc2ccc(-c3cncnc3)cc2)C1 (stereo not drawn),inactive
22,COc1ccc(-c2cccc(C(=O)NCc3ccccc3)c2)nn1,"inconclusive: 25.1 µM [inhibitor, full curve]"
